The campaign covered roughly 310,000 compounds. About 2,200 (0.71%) showed an effect of 50% or more. The effect is printed as a negative number. This is one part of the list.
target: human ether-à-go-go-related gene (hERG) potassium channel (human, UniProt Q12809); experiment: primary screen, population patch clamp on CHO cells stably expressing hERG
Sequence (Q12809 whole entry, looked up): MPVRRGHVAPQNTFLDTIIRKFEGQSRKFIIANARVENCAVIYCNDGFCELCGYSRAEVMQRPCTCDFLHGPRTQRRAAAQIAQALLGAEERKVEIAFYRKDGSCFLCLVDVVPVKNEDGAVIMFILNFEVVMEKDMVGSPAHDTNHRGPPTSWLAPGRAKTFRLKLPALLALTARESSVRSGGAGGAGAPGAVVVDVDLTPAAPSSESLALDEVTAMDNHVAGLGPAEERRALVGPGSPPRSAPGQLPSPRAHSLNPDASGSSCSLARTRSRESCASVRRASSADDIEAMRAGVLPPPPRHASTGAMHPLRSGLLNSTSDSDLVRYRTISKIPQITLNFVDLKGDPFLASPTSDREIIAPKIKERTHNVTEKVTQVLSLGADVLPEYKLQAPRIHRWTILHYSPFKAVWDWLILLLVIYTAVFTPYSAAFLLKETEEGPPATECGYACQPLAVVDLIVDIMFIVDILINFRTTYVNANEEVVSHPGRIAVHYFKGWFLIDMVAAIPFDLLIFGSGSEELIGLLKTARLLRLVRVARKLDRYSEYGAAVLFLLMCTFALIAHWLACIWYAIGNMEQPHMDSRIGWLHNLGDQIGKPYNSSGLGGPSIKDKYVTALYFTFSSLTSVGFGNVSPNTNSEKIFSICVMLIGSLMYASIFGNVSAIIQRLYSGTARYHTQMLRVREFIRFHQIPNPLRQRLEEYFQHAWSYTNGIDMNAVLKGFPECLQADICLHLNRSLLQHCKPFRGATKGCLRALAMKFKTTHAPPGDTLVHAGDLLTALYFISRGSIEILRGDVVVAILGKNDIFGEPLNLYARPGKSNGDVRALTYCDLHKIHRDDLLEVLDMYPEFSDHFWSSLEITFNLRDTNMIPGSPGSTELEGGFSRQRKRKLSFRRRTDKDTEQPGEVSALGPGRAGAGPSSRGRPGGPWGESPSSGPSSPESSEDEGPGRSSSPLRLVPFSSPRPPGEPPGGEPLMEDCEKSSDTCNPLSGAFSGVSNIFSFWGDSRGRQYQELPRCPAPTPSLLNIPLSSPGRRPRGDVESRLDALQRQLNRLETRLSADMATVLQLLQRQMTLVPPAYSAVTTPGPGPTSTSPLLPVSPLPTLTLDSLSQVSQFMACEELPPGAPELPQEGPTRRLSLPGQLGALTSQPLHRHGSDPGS

Going from `Cc1ccccc1NC(=O)COC(=O)c1ccc(CSc2ccc(Cl)cc2)cc1` to `COc1ccc(NC(=O)NCc2ccc(Cl)cc2)cc1`, the “hERG current change (%, negative = inhibition) at 1uM” value rises from 6.75% to 11.1%.

First: NC(=O)NC(=O)COC(=O)CC12CC3CC(CC(C3)C1)C2
Second: CCOC(=O)C1CCN(C(=S)NC(=O)c2cccs2)CC1
The “hERG current change (%, negative = inhibition) at 1uM” value of the first is lower: -3.06% for the first, 17.3% for the second.

Going from `CCOP(=O)(OCC)C(NC(=O)Nc1ccc(Cl)cc1)c1ccccc1` (stereo not shown) to `COc1ccc(CN(C)CC(=O)Nc2ccccc2C(=O)NC2CC2)cc1`, the “hERG current change (%, negative = inhibition) at 1uM” value falls from 12.5% to -0.648%.

Compared with `Cc1ccc(NC(=O)C2C3C=CC4(O3)C2C(=O)N(CCCN2CCOCC2)C4C(=O)NC2CCCCC2)cc1Cl` (stereo not shown), `O=C(COc1ccc(F)cc1Br)NCC1(N2CCOCC2)CCCCC1` is lower in “hERG current change (%, negative = inhibition) at 1uM” value: 13.6% for the first, 0.472% for the second.

First: COC(=O)[C@@H]1[C@@H](C)N(Cc2ccccc2)C(=O)N[C@H]1c1ccccc1
Second: Nc1ccc(S(=O)(=O)NC2(C(F)(F)F)NC(=O)N(Cc3ccccc3)C2=O)cc1 (stereo not shown)
The “hERG current change (%, negative = inhibition) at 1uM” value of the first is higher: 12.5% for the first, 10.2% for the second.

Compared with `CCCSc1nc(C)c(-c2csc(C(C#N)=C3CCCC3)n2)cc1C#N`, `Cc1ccc(Cn2c(Sc3nccc(C)n3)nc3c2c(=O)[nH]c(=O)n3C)cc1` is higher in “hERG current change (%, negative = inhibition) at 1uM” value: -3.25% for the first, -0.0278% for the second.

First: CC(C)(C)OC(=O)N[C@H](C(=O)OC(C)(C)C)c1ccc(C(F)(F)F)cc1
Second: CN(C)C(CNC(=O)C1CCN(S(=O)(=O)c2cccc(C(F)(F)F)c2)CC1)c1ccccc1 (stereo not shown)
The “hERG current change (%, negative = inhibition) at 1uM” value of the first is higher: 12.8% for the first, 5.49% for the second.

Compared with `CCOC(=O)C1=C(N)Oc2cc(O)ccc2C1c1ccc(Br)cc1` (stereo not shown), `Cc1cc(N2C(=O)C(=O)/C(=C(/O)c3ccc(Cl)cc3)C2c2cccc(Br)c2)no1` (stereo not shown) is lower in “hERG current change (%, negative = inhibition) at 1uM” value: 3.57% for the first, 2.11% for the second.

First: COc1ccc(S(=O)(=O)N2CC(O)CC2C(=O)OCC(=O)Nc2ccc(Cl)cn2)cc1 (stereo not shown)
Second: CCOC(=O)c1cc(S(=O)(=O)Nc2ccc(OC)cc2OC)cn1C
The “hERG current change (%, negative = inhibition) at 1uM” value of the first is lower: -3.89% for the first, 14.7% for the second.

Compared with `CCCNC(=O)N1CCN(S(=O)(=O)c2ccc3c(c2)OCCO3)CC1`, `COc1ccc(S(=O)(=O)N2CCNCC2)cc1OC` is higher in “hERG current change (%, negative = inhibition) at 1uM” value: 4.2% for the first, 10.5% for the second.

First: S=c1[nH]nc(-c2cccs2)n1/N=C/c1cn(-c2ccccc2)nc1-c1ccc(Cl)cc1
Second: N#CCCn1cc(/C=C2\NC(=S)N(c3ccccc3)C2=O)c(-c2ccc(-c3ccccc3)cc2)n1
The “hERG current change (%, negative = inhibition) at 1uM” value of the first is higher: 6.42% for the first, 0.455% for the second.

Compared with `CN(CC(=O)Nc1cc(Cl)ccc1C#N)C1CCS(=O)(=O)C1` (stereo not shown), `O=C(Nc1ccc(Cl)cc1Cl)C1CCCO1` (stereo not shown) is higher in “hERG current change (%, negative = inhibition) at 1uM” value: 7.82% for the first, 8.56% for the second.

Compared with `CCOC(=O)[C@H]1[C@H]2COc3ccc(Cl)cc3[C@@H]2N2C(=O)c3cc(F)ccc3NC(=O)[C@@]12C`, `Cc1csc(=O)n1CCC(=O)OCC(=O)NCc1ccc(F)cc1` is lower in “hERG current change (%, negative = inhibition) at 1uM” value: 13.9% for the first, 11.5% for the second.

First: COc1cccc(C(=O)NCCCNC(=O)c2ccco2)c1
Second: COCCCNC(=S)Nc1cccc(S(=O)(=O)NC2=NCCC2)c1
The “hERG current change (%, negative = inhibition) at 1uM” value of the first is higher: 10.6% for the first, 8.68% for the second.

Going from `COc1ccccc1N1CCN(C(=O)C(=O)c2cn(CC(=O)N3CCCCCC3)c3ccccc23)CC1` to `COc1ccccc1-n1cnnc1SCC(=O)c1ccc[nH]1`, the “hERG current change (%, negative = inhibition) at 1uM” value rises from 1.05% to 11%.

Going from `Cc1cc(Cl)ccc1OCC(=O)NCCC(=O)O` to `CCCC(=O)OCC(=O)Nc1cc([N+](=O)[O-])ccc1OC`, the “hERG current change (%, negative = inhibition) at 1uM” value falls from 16.1% to 10.8%.

Going from `COc1ccc(C(O)P(=O)(OCCC(C)C)c2ccc(N(C)C)cc2)cc1OC` (stereo not shown) to `COc1ccc(N(C(=O)CNC(=O)c2cccs2)C(C(=O)NCC2CCCO2)c2ccc(OC)c(OC)c2)cc1` (stereo not shown), the “hERG current change (%, negative = inhibition) at 1uM” value rises from 11.6% to 14%.

First: O=C(CCCO)CCCCCCCCC[C@H]1N[C@H](CO)[C@@H](O)[C@@H]1O
Second: C=CCON/C(CCC)=C1\C(=O)C(C(=O)OC)C(C)(C)CC1=NC (stereo not shown)
The “hERG current change (%, negative = inhibition) at 1uM” value of the first is higher: 19.5% for the first, 14.9% for the second.

Going from `Cc1cccc(C)c1NC(=O)CSc1nc(COc2ccccc2)nc2ccccc12` to `CCc1cccc(C)c1NC(=O)CSc1nc2ccc(N3C(=O)c4ccccc4C3=O)cc2s1`, the “hERG current change (%, negative = inhibition) at 1uM” value falls from 10.9% to 9.97%.

Compared with `COC(=O)c1cc(C(=O)OC)cc(-n2c(C)cc(C(=O)CC#N)c2C)c1`, `Cc1ccc(C(=O)c2ccc(CC(=O)[O-])n2C)cc1.O.[Na+]` is higher in “hERG current change (%, negative = inhibition) at 1uM” value: 8.63% for the first, 13.6% for the second.

Compared with `C=C(C)COc1ccc(-c2ncncc2-c2ccc(OC)cc2)c(O)c1`, `O=C(CSc1n[nH]c(-c2ccncc2)n1)Nc1ccc(F)cc1` is lower in “hERG current change (%, negative = inhibition) at 1uM” value: 19.1% for the first, 11.6% for the second.

Going from `Cc1nc2ccc(NC(=O)c3cccc(S(=O)(=O)N(C)c4ccccc4)c3)cc2s1` to `Cc1ccc(-n2c(O)c(C=Nc3ccc(S(=O)(=O)Nc4ncccn4)cc3)c3ccccc3c2=O)cc1C`, the “hERG current change (%, negative = inhibition) at 1uM” value falls from 8% to -2.78%.

Compared with `O=C(NNS(=O)(=O)c1ccc2ccccc2c1)NC1CCCCC1`, `COc1cc(S(=O)(=O)N(Cc2ccc(C)cc2)C2CCCCC2)ccc1-n1cnnn1` is lower in “hERG current change (%, negative = inhibition) at 1uM” value: -0.731% for the first, -2.32% for the second.

Going from `C/[N+]([O-])=C1\Cc2ccccc2C1=O` to `O=C(CCS(=O)(=O)c1ccc(Br)s1)N1CCc2ccccc21`, the “hERG current change (%, negative = inhibition) at 1uM” value falls from 7.59% to -2.3%.

First: Cc1c(C)[n+](=O)c2c(n1[O-])CCC2
Second: O=C1CCCc2[nH]nc(-c3cccnc3)c21
The “hERG current change (%, negative = inhibition) at 1uM” value of the first is lower: -9.81% for the first, 11.2% for the second.

Compared with `O=S1(=O)CC(O)C(NCc2cccnc2)C1` (stereo not shown), `CCCC1(c2ccccc2)NC(=O)N(C/C=C/Cl)C1=O` (stereo not shown) is lower in “hERG current change (%, negative = inhibition) at 1uM” value: 4.27% for the first, 3.83% for the second.

First: CC(C)c1nc(-c2c(N)n(C)c(=O)n(C)c2=O)sc1C(=O)C(C)(C)C
Second: COc1ccc(Br)cc1CN(C)C(=O)c1cnc(C)cn1
The “hERG current change (%, negative = inhibition) at 1uM” value of the first is lower: 6.76% for the first, 13.8% for the second.

`CCC(NC(=S)NCc1ccc(F)cc1)c1ccc(C)cc1` (stereo not shown) was tested, and the “hERG current change (%, negative = inhibition) at 1uM” value was 13%.
